Reference: patent US20230181756A1, “CCR7 ANTIBODY DRUG CONJUGATES FOR TREATING CANCER” (Novartis AG, priority 2020, published 2023)

Columns and labels:
[1] = molecular target: T1, CCR7 on Mouse CD4+ T cells (Mus musculus, UniProt P47774); assay: FACS binding, cross-reactivity; parameters: species or system CD-1 mice
T1 construct: endogenous in cells; host or cells: CD4+ T cells purified from PBMC of CD-1 mice
T1 sequence (P47774 25-378): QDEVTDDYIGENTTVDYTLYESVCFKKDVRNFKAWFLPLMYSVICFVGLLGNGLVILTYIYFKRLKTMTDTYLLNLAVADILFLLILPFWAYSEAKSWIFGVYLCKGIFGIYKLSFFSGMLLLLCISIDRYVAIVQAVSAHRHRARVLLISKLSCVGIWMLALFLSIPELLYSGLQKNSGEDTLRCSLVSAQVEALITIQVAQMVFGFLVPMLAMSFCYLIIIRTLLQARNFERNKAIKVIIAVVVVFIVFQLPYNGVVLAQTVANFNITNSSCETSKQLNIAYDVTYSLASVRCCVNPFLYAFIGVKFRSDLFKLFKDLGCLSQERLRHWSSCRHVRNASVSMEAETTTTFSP
Description: (§1) The affinity of various antibodies and ADCs to CCR7 and its species orthologues was determined using FACS. Purified IgGs were titrated to determine EC50 values for binding to cell surface expressed CCR7.
(§2) For this purpose, CCR7 positive cells were harvested (adherent cells were detached with Accutase), washed twice with FACS buffer (PBS/3% FCS/0.02% sodium azide) and diluted to approximately 2×10^6 cells/ml in FACS buffer. All subsequent steps were done on ice to prevent internalization of the receptor. 100 μl cell suspension/well were transferred into 96-well U-bottom plates (Falcon). 2×10^5 cells/well were incubated with a serial dilution of antibody concentrations of the anti-CCR7 antibody-of-interest ranging across several logs, starting at a high of 100 nM for 60 minutes at 4° C., gently shaking. Following incubation, cells were spun down (1200 rpm, 2 min, 4° C.) and washed three times with FACS buffer. […] After a final wash, cells were resuspended in 100 μl of FACS buffer containing 0.2 μg/ml DAPI followed by readout on the flow cytometry machine (BD LSRFortessa Cell Analyzer; Cat #647177). Mean fluorescence intensity (MFI) of live, single cells was calculated in Flowjo 10.0.8 and exported into Graphpad Prism6 for EC50 determination. […]

[2] = test system: CCR7 and CD20 expressing JVM2 cells; assay: surrogate ADCC reporter assay (Jurkat-V158 effector cells); assay type: cell-based; settings: JVM2, CCR7 receptor # 66,500
Description: Capacity of candidate antibodies to mediate ADCC was assessed using a surrogate ADCC reporter assay. CCR7 and CD20 expressing JVM2 cells were used as target cells. JVM2 cells were washed and re-suspended at 8×10^4 cells/ml cells/ml. Effector cells in this assay were a Jurkat cell line stably expressing CD16V158 and an NFAT dependent luciferase reporter (Jurkat-V158); expression of luciferase is a surrogate for canonical ADCC signaling through CD16. Briefly, Jurkat-V158 cells grown in suspension were spun down to remove spent media, the pellet was resuspended in assay media and adjusted to 1.6×10^6 cells/ml cells/mL. Mix equal volumes of effector and target cells to make a master mix of cells yielding a target to effector cell ratio of 1:5 or 1:20. A titration of antibody was diluted in assay media with a final top concentration of 50 ug/mL in the assay well. 12.5 uL of Ab solution was added to a 384 well round bottom plate and then 12.5 ul of the master cell mix was added. Antibody and cells were mixed well by pipetting and incubated for 4 hours at 37° C. in 5% CO2. Following incubation, 15 uL of Bright Glo substrate (Promega #G7572) was added to each well and shaken for 5 min at RT at 1050 rpm. Luminescent signal was read on the Envision plate reader (Perkin Elmer). […]

CCR7 on Rat CD4+ T cells = assay: FACS binding, cross-reactivity; parameters: species or system Wistar rats
Description: as §1, §2

NIH3T3.rat CCR7 = assay: FACS binding, cross-reactivity
Description: as §1
(§3) For this purpose, CCR7 positive cells were harvested (adherent cells were detached with Accutase), washed twice with FACS buffer (PBS/3% FCS/0.02% sodium azide) and diluted to approximately 2×10^6 cells/ml in FACS buffer. All subsequent steps were done on ice to prevent internalization of the receptor. 100 μl cell suspension/well were transferred into 96-well U-bottom plates (Falcon). 2×10^5 cells/well were incubated with a serial dilution of antibody concentrations of the anti-CCR7 antibody-of-interest ranging across several logs, starting at a high of 100 nM for 60 minutes at 4° C., gently shaking. Following incubation, cells were spun down (1200 rpm, 2 min, 4° C.) and washed three times with FACS buffer. A fluorophore-conjugated anti-hFc gamma-APC (Jackson ImmunoResearch) detection antibody was added at 1:400 and samples were incubated for 1 h on ice in the dark, gently shaken. After a final wash, cells were resuspended in 100 μl of FACS buffer containing 0.2 μg/ml DAPI followed by readout on the flow cytometry machine (BD LSRFortessa Cell Analyzer; Cat #647177). Mean fluorescence intensity (MFI) of live, single cells was calculated in Flowjo 10.0.8 and exported into Graphpad Prism6 for EC50 determination.
(§4) In a similar experiment the antibodies were tested for cross-reactivity using engineered isogenic matched cell line sets (NIH3T3 series) and CD4+ T cells, which were purified from several PBMC batches from healthy donors as well as cynomolgus monkeys, Wistar rats and CD-1 mice. […] Only the non-humanized 121G12 antibody is rodent cross-reactive.

NIH3T3.mouse CCR7 = molecular target: T2, NIH3T3.mouse CCR7 (Mus musculus, UniProt P47774); assay: FACS binding, cross-reactivity
T2 construct: Full length human, cyno and mouse CCR7 genes were synthesized; expressed in transfected cells; host or cells: NIH/3T3 (retroviral transduction)
T2 sequence (P47774 25-378): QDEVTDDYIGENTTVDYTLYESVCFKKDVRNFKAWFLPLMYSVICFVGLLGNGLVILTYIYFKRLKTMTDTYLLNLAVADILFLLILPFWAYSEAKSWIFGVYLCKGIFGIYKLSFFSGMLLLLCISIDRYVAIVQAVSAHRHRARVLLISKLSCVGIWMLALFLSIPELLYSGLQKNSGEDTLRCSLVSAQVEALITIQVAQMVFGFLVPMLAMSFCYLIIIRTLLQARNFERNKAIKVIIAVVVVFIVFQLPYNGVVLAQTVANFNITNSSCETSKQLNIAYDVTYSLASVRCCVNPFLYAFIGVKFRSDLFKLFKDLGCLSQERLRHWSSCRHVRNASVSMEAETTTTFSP
Description: as §1, §3, §4

DEL = assay: surrogate ADCC reporter assay (Jurkat-V158 effector cells); assay type: cell-based; settings: CCR7 receptor # 62,000
Description: (§5) Capacity of candidate antibodies to mediate ADCC was assessed using a surrogate ADCC reporter assay. CCR7 and CD20 expressing JVM2 cells were used as target cells. JVM2 cells were washed and re-suspended at 8×10^4 cells/ml cells/ml. Effector cells in this assay were a Jurkat cell line stably expressing CD16V158 and an NFAT dependent luciferase reporter (Jurkat-V158); expression of luciferase is a surrogate for canonical ADCC signaling through CD16. Briefly, Jurkat-V158 cells grown in suspension were spun down to remove spent media, the pellet was resuspended in assay media and adjusted to 1.6×10^6 cells/ml cells/mL. Mix equal volumes of effector and target cells to make a master mix of cells yielding a target to effector cell ratio of 1:5 or 1:20. A titration of antibody was diluted in assay media with a final top concentration of 50 ug/mL in the assay well. 12.5 uL of Ab solution was added to a 384 well round bottom plate and then 12.5 ul of the master cell mix was added. Antibody and cells were mixed well by pipetting and incubated for 4 hours at 37° C. in 5% CO2. Following incubation, 15 uL of Bright Glo substrate (Promega #G7572) was added to each well and shaken for 5 min at RT at 1050 rpm. Luminescent signal was read on the Envision plate reader (Perkin Elmer).
(§6) The ADCC assay was run with non-humanized 506E15 antibody as a representative ADCC-capable anti-CCR7 antibody across various cell lines with a range of CCR7 receptor numbers to determine the minimal receptor density needed for ADCC activity and if there is a sufficient safety margin over normal CCR7+ T cells. The table below summarizes some of the data.

ALL-SIL = assay: as above; assay type: cell-based; settings: CCR7 receptor # 6,200
Description: as §5, §6

Jurkat V158 = assay: as above; assay type: cell-based; settings: Jurkat V158, CCR7 receptor # 3,400
Description: as §5, §6

SR786 = assay: as above; assay type: cell-based; settings: SR786, CCR7 receptor # 27,800
Description: as §5, §6

MOTN-1 = assay: as above; assay type: cell-based; settings: MOTN-1, CCR7 receptor # 64,600
Description: as §5, §6

DND-41 = assay: as above; assay type: cell-based; settings: DND-41, CCR7 receptor # 1,700
Description: as §5, §6

PEER = assay: as above; assay type: cell-based; settings: CCR7 receptor # 8,700
Description: as §5, §6

CMLT-1 = assay: as above; assay type: cell-based; settings: CMLT-1, CCR7 receptor # 29,000
Description: as §5, §6

Normal T cells = assay: ADCC activity on normal T cells (line of Table 6); assay type: cell-based; settings: CCR7 receptor # <1.5K
From the text: as §6
As a consequence all candidates were switched to the Fc silent (DAPA) format to improve overall on-target safety.

NIH3T3.cyno CCR7 = assay: FACS binding, cross-reactivity; parameters: species or system cynomolgus monkey
Description: as §1, §2

Molecule | Apparent FACS Affinity; EC50 (nM) [1] | 506E15 (max RLU), ADCC activity [2] | Apparent FACS Affinity; EC50 (nM) (CCR7 on Rat CD4+ T cells) | Apparent FACS Affinity; EC50 (nM) (NIH3T3.rat CCR7) | Apparent FACS Affinity; EC50 (nM) (NIH3T3.mouse CCR7) | 506E15 (max RLU), ADCC activity (DEL) | 506E15 (max RLU), ADCC activity (ALL-SIL) | 506E15 (max RLU), ADCC activity (Jurkat V158) | 506E15 (max RLU), ADCC activity (SR786) | 506E15 (max RLU), ADCC activity (MOTN-1) | 506E15 (max RLU), ADCC activity (DND-41) | 506E15 (max RLU), ADCC activity (PEER) | 506E15 (max RLU), ADCC activity (CMLT-1) | 506E15 IC50 (nM), ADCC activity (Normal T cells) | Apparent FACS Affinity; EC50 (nM) (NIH3T3.cyno CCR7)
506E15 non-humanized CysMab: non-humanized anti-CCR7 antibody 506E15 in CysMab format (antibody) heavy: EVMLVESGGGLVKPGGSLKLSCAASGFTFSSYAMSWIRQTPEKRLEWVATISSGGSFTYYPDSVKGRFTISRDNVKNTLYLQMSSLRSEDTAMYYCARRASTVVGTDFDVWGAGTTVTVSSASTKGPSVFPLAPSSKSTSGGTAALGCLVKDYFPCPVTVSWNSGALTSGVHTFPAVLQSSGLYSLSSVVTVPSSSLGTQTYICNVNHKPSNTKVDKRV[human IgG1 Fc with S375C (EU numbers) omitted] light: DIQMTQSPSSLSASLGERVSLTCRASQDIGSSLNWLQQEPDGTIKRLIYATSSLDSGVPKRFSGSRSGSDYSLTISSLESEDFVVYYCLQYASSPPTFGGGTKLEIKRTVAAPSVFIFPPSDEQLKSGTASVVCLLNNFYPREAKVQWKVDNALQSGNSQESVTEQDSKDSTYSLSSTLTLSKADYEKHKVYACEVTHQGLSSPVTKSFNRGEC | No binding | 5840 RLU | No binding | No binding | No binding | 6480 RLU | 3720 RLU | 3267 RLU | 4067 RLU | 5387 RLU | 3733 RLU | 3360 RLU | 4400 RLU | depletion in vivo | –
684E12 non-humanized CysMab: non-humanized anti-CCR7 antibody 684E12 in CysMab format (antibody) heavy: EVHLVESGGGLVKPGGSLKLSCAASGFTFSNFAMSWVRQTPEKRLEWVATISTGGTYTYYPDSVKGRFTISRDNAKKTLYLQMSSLRSEDTAMYYCTRRGYDGVDKWGQGTTLTVSSASTKGPSVFPLAPSSKSTSGGTAALGCLVKDYFPCPVTVSWNSGALTSGVHTFPAVLQSSGLYSLSSVVTVPSSSLGTQTYICNVNHKPSNTKVDKRV[human IgG1 Fc with S375C (EU numbers) omitted] light: DVVMTQTPLTLSVTIGQPASISCKSGQSLLDSDGKTYLNWFLQRPGQSPKRLIYLVSKLDSGVPDRFTGSGSGTDFTLKISRVEAEDLGVYYCWQGTHFPQTFGGGTKLEIKRTVAAPSVFIFPPSDEQLKSGTASVVCLLNNFYPREAKVQWKVDNALQSGNSQESVTEQDSKDSTYSLSSTLTLSKADYEKHKVYACEVTHQGLSSPVTKSFNRGEC | – | – | – | No binding | No binding | – | – | – | – | – | – | – | – | – | Binding
674J13 non-humanized CysMab: non-humanized anti-CCR7 antibody 674J13 in CysMab format (antibody) heavy: DVQLQESGPDLVKPSQSLSLTCTVTGYSITSGYSWHWIRQFPGNKLEWMAHIHSSGSTNYNPSLKSRISIIRDTSKNLFFLQLNSVTTEDTATYYCARGGVQAFAYWGQGTLVTVSAASTKGPSVFPLAPSSKSTSGGTAALGCLVKDYFPCPVTVSWNSGALTSGVHTFPAVLQSSGLYSLSSVVTVPSSSLGTQTYICNVNHKPSNTKVDKRV[human IgG1 Fc with S375C (EU numbers) omitted] light: QIVLTQSPAIMSASPGEKVTMTCSASSSVIYMHWYQQKSGTSPKRWIYDTSKLASGVPARFSGSGSGTSYSLTISSMEAEDAATYYCQQWSSNPLTFGAGTTLELKRTVAAPSVFIFPPSDEQLKSGTASVVCLLNNFYPREAKVQWKVDNALQSGNSQESVTEQDSKDSTYSLSSTLTLSKADYEKHKVYACEVTHQGLSSPVTKSFNRGEC | No binding | – | No binding | No binding | No binding | – | – | – | – | – | – | – | – | – | –
